Measurements published in the supplement of paper PMC11880418.
Counter-ions that a name gives are not always drawn. This is one part of the list. The data scatter; read single values as rough. Starred links: 1 amine or outer side, 2 acyl side, 3 side chain; linkers in the order of their positions; H or OH if unused. Positions of bridges follow the written chain, without caps; N, C: chain ends. Non-standard residues stand in square brackets, D forms with d. Residues, ends and D or L forms follow the SMILES beside them. *: point of attachment. X1 = NC1=N[C@@H]([C@H](N[*:1])C(=O)[*:2])C[C@H](O)N1; ΔAla(Z-3-ureido) = NC(=O)N/C=C(\N)C(=O)O; β3hOrn = NCCC[C@H](N)CC(=O)*; Dap = NC[C@H](N)C(=O)O

Key:
Assay in all cases: ALDHbr (CSC) cell proportion score relative to DMSO vehicle (ratio to DMSO); breast (SUM159) / gastric (MKN45) / pancreatic (PANC1) / colon cancer lines; ALDHbr cells have high ALDH activity and are rich in cancer stem cells (CSC); higher = more CSC (ALDHbr) cells remaining
Settings in all cases: 10 µM; 72 h
MKN45 = system: MKN45
PANC1 = system: PANC1
SUM159 = system: SUM159
T84 = system: T84
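Also: High-content imaging of ALDEFLUOR-stained cells with Hoechst-labelled nuclei in 384-well plates, triplicate wells, scored as Z-score against 0.1% DMSO vehicle, negative meaning fewer ALDHbr cells.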

Structure (SMILES)	ALDHbr (MKN45)	ALDHbr (PANC1)	ALDHbr (SUM159)	ALDHbr (T84)
COCC(=O)Nc1c(I)c(C(=O)NCC(O)CO)c(I)c(C(=O)N(C)CC(O)CO)c1I (configuration not stated) [Iopromide]	0.948	1.02	1.16	0.992
CN(C)c1ccc(O)c2c1C[C@H]1C[C@H]3[C@H](N(C)C)C(=O)C(C(N)=O)=C(O)[C@@]3(O)C(=O)C1=C2O [Minocycline hydrochloride]	0.433	0.508	0.372	0.967
Cc1ccc(NC(=O)c2ccc(CN3CCN(C)CC3)cc2)cc1Nc1nccc(-c2cccnc2)n1 [Imatinib]	0.711	1.9	1.19	0.807
CSc1ccc2c(c1)C(N1CCN(C)CC1)Cc1ccccc1S2 (configuration not stated) [Methiothepin maleate]	0.811	0.872	0.207	0.514
CCc1cccc(CC)c1NC(=O)CN(CC(=O)O)CC(=O)O [Etifenin]	0.932	0.945	1.05	1.03
Cc1ccnc(NS(=O)(=O)c2ccc(N)cc2)n1 [Sulfamerazine]	1.02	0.917	1.02	0.872
CO[C@@H]1[C@@H](OC(N)=O)[C@@H](O)[C@H](Oc2ccc3c(O)c(NC(=O)c4ccc(O)c(CC=C(C)C)c4)c(=O)oc3c2C)OC1(C)C [Novobiocin sodium salt]	0.955	0.89	0.827	0.883
Clc1ccc(Nc2nnc(Cc3ccncc3)c3ccccc23)cc1 [Vatalanib]	0.833	0.628	0.865	0.746
Cc1cc2c(s1)Nc1ccccc1N=C2N1CCN(C)CC1 [Olanzapine]	1.22	0.799	0.992	0.882
COc1ccc2cc([C@@H](C)C(=O)O)ccc2c1 [(R) -Naproxen sodium salt]	1.17	1.02	1.11	0.999
C#C[C@]1(OC(C)=O)CC[C@H]2[C@@H]3CCC4=C[C@@H](OC(C)=O)CC[C@@H]4[C@H]3CC[C@@]21C [Ethynodiol diacetate]	0.598	1.08	2.05	0.977
N=C(N)NC(=N)NCCc1ccccc1 [Phenformin hydrochloride]	0.864	1.24	1.47	0.935
CC(=O)OCC(=O)[C@@]1(O)CC[C@H]2[C@@H]3CCC4=CC(=O)C=C[C@]4(C)[C@@]3(F)[C@@H](O)C[C@@]21C [Isoflupredone acetate]	1.03	0.565	1.09	0.856
Nc1ccc(C(=O)NCC(=O)O)cc1 [Aminohippuric acid]	0.921	0.932	1.01	0.959
CCCNC(=O)NS(=O)(=O)c1ccc(Cl)cc1 [Chlorpropamide]	1.02	0.817	0.834	0.852
Cc1onc(-c2c(Cl)cccc2Cl)c1C(=O)N[C@@H]1C(=O)N2[C@@H]1SC(C)(C)[C@@H]2C(=O)O [Dicloxacillin sodium salt hydrate]	1.03	0.96	0.901	0.951
Nc1nc(=O)c2c([nH]1)NC[C@@H](CNc1ccc(C(=O)N[C@@H](CCC(=O)O)C(=O)O)cc1)N2C=O [Folinic acid calcium salt]	1.05	0.914	0.967	0.94
CCn1cc(C(=O)O)c(=O)c2cc(F)c(N3CCNC(C)C3)c(F)c21 (configuration not stated) [Lomefloxacin hydrochloride]	1.1	0.863	1.12	1.07
CC1(C)NC(=O)N(c2ccc([N+](=O)[O-])c(C(F)(F)F)c2)C1=O [Nilutamide]	0.826	0.854	1.03	0.932
CC(=O)[C@@]1(O)CC[C@H]2[C@@H]3C[C@H](C)C4=CC(=O)C=C[C@]4(C)[C@@]3(F)[C@@H](O)C[C@@]21C [Fluorometholone]	0.836	0.558	1.14	0.852
CNNCc1ccc(C(=O)NC(C)C)cc1 [Procarbazine hydrochloride]	1.29	0.991	1.25	1.21
CCCc1nc(C)c2c(=O)nc(-c3cc(S(=O)(=O)N4CCN(CC)CC4)ccc3OCC)[nH]n12 [Vardenafil]	0.7	0.383	0.904	0.773
CC1(C)O[C@@H]2C[C@H]3[C@@H]4CCC5=CC(=O)C=C[C@]5(C)[C@H]4[C@@H](O)C[C@]3(C)[C@]2(C(=O)CO)O1 [Desonide]	0.828	0.647	0.936	0.792
CO[C@@]1(NC(=O)Cc2cccs2)C(=O)N2C(C(=O)O)=C(COC(N)=O)CS[C@@H]21 [Cefoxitin sodium salt]	0.792	0.932	0.817	1.04
COc1ccccc1N1CCN(CC(O)COc2cccc3ccccc23)CC1 (configuration not stated) [Naftopidil dihydrochloride]	1.36	0.928	0.835	0.8
CCn1cc(C(=O)O)c(=O)c2cnc(N3CCCC3)nc21 [Piromidic acid]	0.922	0.918	1.07	1.04
NC(=O)OCC(O)COc1ccc(Cl)cc1 (configuration not stated) [Chlorphensin carbamate]	1.31	0.924	1.04	1.02

Structure (SMILES)	ALDHbr (MKN45)	ALDHbr (PANC1)	ALDHbr (SUM159)	ALDHbr (T84)
C/C(=C(\CCOP(=O)(O)O)SC(=O)c1ccccc1)N(C=O)Cc1cnc(C)nc1N [Benfotiamine]	1.03	0.946	0.961	0.887
CCOC(=O)c1ccc(C#Cc2ccc3c(c2)C(C)(C)CCS3)nc1 [Tazarotene]	0.808	1.3	0.0294	0.553
COc1ccccc1OCC(O)COC(N)=O (configuration not stated) [Methocarbamol]	1.07	0.846	1.1	0.826
Nc1cc(-c2ccncc2)c[nH]c1=O [Amrinone]	0.759	0.918	1.61	1.1
C[C@]12C=CC(=O)C=C1CC[C@@H]1[C@@H]2[C@@H](O)C[C@@]2(C)[C@H]1CC[C@]2(O)C(=O)CO [Prednisolone]	1.02	0.605	1.16	0.885
CC(C(=O)O)c1cccc(Oc2ccccc2)c1 (configuration not stated) [Fenoprofen calcium salt dihydrate]	1.04	0.932	0.926	1.01
CCOC(=O)[C@H](CCc1ccccc1)N[C@@H](C)C(=O)N1Cc2ccccc2C[C@H]1C(=O)O [Quinapril hydrochloride]	0.871	0.818	1.12	1.12
COc1cc(C(=O)NCc2ccc(OCCN(C)C)cc2)cc(OC)c1OC [Trimethobenzamide hydrochloride]	1.27	0.708	0.898	0.858
CC(=O)Oc1cccc2c1C(=O)c1c(OC(C)=O)cc(C(=O)O)cc1C2=O [Diacerein]	0.893	0.918	0.986	0.823
CC(=O)[C@H]1CC[C@H]2[C@@H]3CCC4=CC(=O)CC[C@]4(C)[C@H]3CC[C@]12C [Progesterone]	0.332	0.77	0.833	0.879
CN(C)CCCN1c2ccccc2Sc2ccc(Cl)cc21 [Chlorpromazine hydrochloride]	0.833	1.16	0.64	0.58
Cc1c(N(C)CS(=O)(=O)O)c(=O)n(-c2ccccc2)n1C [Dipyrone]	1.08	1.04	0.782	0.917
CN(C)CCCO[C@@H]1[C@H]2OC(C)(C)O[C@H]2O[C@@H]1[C@H](O)CO [Amiprilose hydrochloride]	0.966	0.848	0.928	0.934
Brc1c(NC2=NCCN2)ccc2nccnc12 [Brimonidine L-Tartrate]	1.02	0.955	0.893	0.959
NCCC[C@H](N)CC(=O)N[C@H]1CNC(=O)[C@H]([C@H]2C[C@H](O)NC(N)=N2)NC(=O)/C(=C/NC(N)=O)NC(=O)[C@H](CO)NC(=O)[C@H](CO)NC1=O [Viomycin sulfate] (β3hOrn-[Dap]SS[ΔAla(Z-3-ureido)][X1]; lactam 1-C)	1.09	0.994	1.1	1.01
C[N+](C)(C)CCCCCC[N+](C)(C)C [Hexamethonium dibromide dihydrate]	0.925	0.937	1.11	0.961
O=C(O)Cc1sc(-c2ccccc2)nc1-c1ccc(Cl)cc1 [Fentiazac]	1.18	1.02	0.951	0.786
O=C(O)/C=C/c1ccc(Cn2ccnc2)cc1 [Ozagrel hydrochloride]	1.14	0.976	1.01	0.949
CC(C)(O)c1ccccc1CC[C@@H](SCC1(CC(=O)O)CC1)c1cccc(/C=C/c2ccc3ccc(Cl)cc3n2)c1 [Montelukast]	1.09	0.959	1.03	0.772
O=C(Oc1cccc2cccnc12)c1ccccc1 [Benzoxiquine]	1.17	1.11	0	0.329
CCOC(=O)[C@@](C)(N)Cc1ccc(O)c(O)c1 [Methyldopate hydrochloride]	0.923	0.955	1.09	0.795
CC(=O)NS(=O)(=O)c1ccc(N)cc1 [Sulfacetamide sodic hydrate]	1.08	0.878	1.01	0.935
CC[N+](C)(C)c1cccc(O)c1 [Edrophonium chloride]	1.02	0.9	0.921	1.24
CN1CCC(=C2c3ccccc3C=Cc3ccccc32)CC1 [Cyproheptadine hydrochloride]	0.997	1.01	0.643	0.693
CC(=O)Oc1ccccc1C(=O)O [Acetylsalicylic acid]	1.06	0.823	0.995	0.983
CC(C)CCCCC(=O)N[C@@H](CCN)C(=O)N[C@@H](CN[C@@H](CCN)C(=O)N[C@H]1CCNC(=O)[C@H]([C@@H](C)O)NC(=O)[C@H](CCN)NC(=O)[C@H](CCN)NC(=O)[C@H](CC(C)C)NC(=O)[C@@H](CC(C)C)NC(=O)[C@H](CCN)NC1=O)[C@@H](C)O.CCC(C)CCCCC(=O)N[C@@H](CCN)C(=O)N[C@@H](CN[C@@H](CCN)C(=O)N[C@H]1CCNC(=O)[C@H]([C@@H](C)O)NC(=O)[C@H](CCN)NC(=O)[C@H](CCN)NC(=O)[C@H](CC(C)C)NC(=O)[C@@H](CC(C)C)NC(=O)[C@H](CCN)NC1=O)[C@@H](C)O (stereo partly drawn) [Colistin sulfate] (HELM PEPTIDE1{[C[C@@H](O)[C@H](CN[C@@H](CCN)C(=O)[*:2])N[*:3]].[Dab].[Dab].[dL].L.[Dab].[Dab].T}|PEPTIDE2{[CCC(C)CCCCC(=O)[*:2]].[Dab]}$PEPTIDE1,PEPTIDE2,1:R3-2:R2|PEPTIDE1,PEPTIDE1,2:R3-8:R2$$$V2.0)	0.849	0.939	1.02	0.852
